These results are taken from PubChem BioAssay AID488969 (Vanderbilt High Throughput Screening Facility, 2010).

Whole data set: some 110,000 compounds, median “z-score” near -0.1, cut for the highest 2% near 2. The list shows a part of the results. Activity calls are given as the source filed them.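 How the source made its calls: active means z-score in the third read window above 3 or below -3; inactive means the rest.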

The target in the assay is Metabotropic glutamate receptor 8 (Rattus norvegicus) (UniProt P70579). As to the kind of experiment: rat mGluR8 modulators via GIRK flux, primary screen, cell-based, thallium flux, HTS (AID 488969). The note with it: HEK293 rat mGluR8, GIRK (G protein-gated inwardly rectifying potassium channel) thallium flux, FluoZin2; at 10 µM; stronger effect = higher value; submaximal glutamate (EC20) added with thallium.
Chain of UniProt P70579 (P70579 whole entry, looked up): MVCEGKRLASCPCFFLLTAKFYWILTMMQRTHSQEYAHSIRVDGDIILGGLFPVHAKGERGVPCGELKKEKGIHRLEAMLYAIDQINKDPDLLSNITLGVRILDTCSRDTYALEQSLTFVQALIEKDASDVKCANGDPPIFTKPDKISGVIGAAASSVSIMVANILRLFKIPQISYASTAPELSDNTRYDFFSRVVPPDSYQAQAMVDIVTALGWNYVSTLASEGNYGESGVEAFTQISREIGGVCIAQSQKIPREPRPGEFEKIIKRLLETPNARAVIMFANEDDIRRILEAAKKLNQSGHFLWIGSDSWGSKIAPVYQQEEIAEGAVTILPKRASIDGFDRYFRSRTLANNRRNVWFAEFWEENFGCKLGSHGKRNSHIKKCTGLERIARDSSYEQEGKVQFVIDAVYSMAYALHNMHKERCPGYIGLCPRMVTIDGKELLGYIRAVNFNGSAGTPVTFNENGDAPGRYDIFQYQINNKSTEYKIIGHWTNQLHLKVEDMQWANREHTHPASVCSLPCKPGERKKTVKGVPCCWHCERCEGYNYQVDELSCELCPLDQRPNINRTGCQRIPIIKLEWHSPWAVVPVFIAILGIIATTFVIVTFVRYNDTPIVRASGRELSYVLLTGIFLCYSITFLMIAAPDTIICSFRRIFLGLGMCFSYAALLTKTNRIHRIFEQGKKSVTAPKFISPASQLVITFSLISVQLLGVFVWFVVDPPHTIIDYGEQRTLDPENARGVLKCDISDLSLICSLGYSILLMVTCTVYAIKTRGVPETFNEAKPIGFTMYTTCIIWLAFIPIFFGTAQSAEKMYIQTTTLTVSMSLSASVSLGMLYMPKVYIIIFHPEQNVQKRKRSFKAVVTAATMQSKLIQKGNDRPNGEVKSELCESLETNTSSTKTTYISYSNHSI
With `COc1ccc(CCN2C(=O)C(O)=C(C(C)=O)C2c2ccccc2OC)cc1OC` (configuration not stated), the z-score was -0.511.
`CCOC(=O)CCCCC(=O)NC(CO)C(=O)NC` (configuration not stated) gave a z-score of 0.051.
`O=C(Nc1ccon1)c1ccc2c(c1)OCO2` showed a z-score of 0.163.
In the case of `Cc1nn(CC(=O)NCc2cccnc2)c(=O)c2ccccc12`, the z-score is -0.16.
In the case of `CCCOc1ccc(CN(CCO)CCO)cc1C(=O)OC` it was -0.61; in that of `O=C(Nc1nnc(-c2ccccc2Cl)o1)c1nc2ccccc2s1`, 1.61.
In the case of `Cc1cc(C)nc(SC(C)C(=O)Nc2ccc(S(N)(=O)=O)cc2)n1` (configuration not stated) it was 0.874; in that of `O=C1NC(c2ccccc2)=C(c2ccc3ccccc3n2)C(c2ccncc2)N1` (configuration not stated), -0.182; in that of `O=C(CSc1ncccn1)NCc1ccccc1`, -0.203.
To `C=CCn1c(SCC(=O)Nc2nc3ccccc3s2)nnc1-c1ccccc1O` belongs -1.48; to `CCCNC(=O)Nc1nccs1`, 0.416; to `Cc1cccc(CN2CCC(C(N)=O)CC2)c1`, -0.102.
For `Fc1ccccc1COc1ccc(-c2nnn(Cc3ccccc3F)n2)cc1`, the z-score is -0.229.
To `CC(OC(=O)C1CCCO1)C(=O)NC1CCCC1` (configuration not stated) belongs 0.22.
Molecule `O=C(c1ccco1)N1CCN(C(c2ccccc2)c2nnnn2C2CCCC2)CC1` (configuration not stated) displayed a z-score of -0.364.
To `Cc1ccc(/C=C/C(=O)NCc2ccc3c(c2)OCO3)o1` belongs -0.159; to `C=CCSc1ncccc1C(=O)NCc1ccc(C)cc1`, -0.198; to `COc1ccc(NC(=O)CN2CCN(c3ccccc3Cl)CC2)cc1`, -0.216.
To `Cc1nnc(SCC(=O)N2CCN(Cc3ccccc3)CC2)s1` belongs -0.196; to `CC(C)(C)c1ccc(C(=O)c2c[nH]c(C(=O)NCc3ccco3)c2)cc1`, 0.44.
To `O=C(c1cccn2c(=O)c3cc4ccccc4cc3nc12)N1CCN(c2ccccc2)CC1` belongs -0.128.
With `Cn1c(=O)c2ncn(CC(=O)N/N=C/c3ccco3)c2n(C)c1=O`, the z-score is -0.105.
`Cc1ccc(C(C)n2cc(C(=O)NCc3cccnc3)nn2)cc1` (configuration not stated) registered a z-score of -0.242.
`CC(C)C(=O)Nc1ccc([N+](=O)[O-])cc1Br` gave a z-score of -0.205.
In the case of `CCc1cc(C(=O)OC)c(NC(=O)CCC(=O)O)s1` it was -0.105; in that of `O=C(NCc1ccccn1)C(F)(F)C(F)(F)C(=O)NCc1ccccn1`, -0.509.
To `O=S1(=O)CCN(Cc2cccc(Cl)c2)CC1` belongs -0.236; to `CCOC(=O)c1cc(C(=O)c2cccs2)n2ccc(C(C)=O)cc12`, -0.115.
In the case of `Cc1ccccc1-n1c(SCC(=O)NC(N)=O)nc2sc(-c3ccccc3)cc2c1=O` it was 0.4; in that of `CCC(C)(C)n1nnnc1C(c1ccc2ncccc2c1)N1CCN(c2nc3ccccc3s2)CC1` (configuration not stated), -0.286.
For `OC(CN1CCOCC1)Cn1c(-c2cccc(Cl)c2)nc2ccccc21` (configuration not stated), the z-score turned out to be 0.102.
`N#Cc1ccsc1NC(=O)COC(=O)CCCSc1nc2ccccc2s1` returned a z-score of -0.053.
With `CCc1nn(-c2cc(Oc3cccc4ccccc34)nc(-c3ccccc3)n2)c(N)c1C#N`, the z-score is 0.03.
To `Cc1ccc(C(=O)Nc2nccc(-c3cccs3)n2)cc1` belongs -0.21; to `O=C(NNc1cccc(Cl)n1)Nc1cccc(C(F)(F)F)c1`, -0.151.
To `CCC(C)(C)c1nnc(NC(=O)c2ccc([N+](=O)[O-])cc2)s1` belongs -0.246.
With `Cc1cc(C)c(-c2c(O)c3cccc4c3n(c2=O)CCC4)c(C)c1`, the z-score came out at 0.0112.
Consider `CCOc1ccccc1N1CCN(C2=C(NS(=O)(=O)c3cccs3)C(=O)c3ccccc3C2=O)CC1`, for which the z-score was -0.248.
In the case of `O=c1c2ccccc2nc(SCc2ccccc2Cl)n1Cc1ccccc1` it was -0.107; in that of `Cc1ccc(S(=O)(=O)Cc2ccc(C(=O)N3CCCCCC3)o2)cc1`, -0.0382; in that of `Cc1ccccc1N1CCN(S(=O)(=O)c2ccc3oc(=O)ccc3c2)CC1`, -1.76.
In the case of `Fc1ccccc1CSc1ncnc2c1oc1ccccc12` it was 0.342; in that of `CCCOc1ccc(N2C(=O)CC(N3CCC(c4nncn4CC)CC3)C2=O)cc1` (configuration not stated), 0.0427; in that of `CCOc1ccc(NCc2nnc(SCc3ccccc3Cl)n2-c2ccccc2)cc1`, -0.103.
To `NC(=O)CSC1=Nc2ccccc2C2=NC(CC(=O)NCc3cccs3)C(=O)N12` (configuration not stated) belongs 0.844.
In turn, `CC(=O)Nc1nc(C)nc(-c2ccccc2)c1C(C)=O` yielded a z-score of 0.465.
In turn, `O=C(CCc1nc2ccccc2c(=O)[nH]1)OCC(=O)c1cccc(Cl)c1` showed a z-score of -0.231.
In the case of `CCCC1O[C@@H]2CC3C4CCC5=CC(=O)C=C[C@]5(C)C4C(OC(C)=O)C[C@]3(C)[C@]2(C(=O)COC(C)=O)O1` (some centres not stated) it was -0.809; in that of `Cc1ccc(S(=O)(=O)N2CN(Cc3ccco3)c3nc4ccccc4nc32)cc1C`, -0.26; in that of `COc1cc(C2C(C#N)=C(N)OC3=C2C(=O)CCC3)c([N+](=O)[O-])cc1OC` (configuration not stated), -0.496.
In the case of `C=CCOc1ccc(NC(=O)C(=O)NCCCn2ccnc2)cc1` it was -0.0948; in that of `COC(=O)c1sccc1NC(=O)C1C2C=CC(O2)C1C(=O)O` (configuration not stated), -0.0649.
For `COC(=O)c1c(NC(=O)c2ccccc2N(C)S(=O)(=O)c2ccccc2)sc2c1CCCC2`, the z-score is -0.215.
As for `CCC(=O)NC(=S)N1CCN(c2ccc([N+](=O)[O-])cc2Cl)CC1`, the z-score turned out to be 0.187.
In the case of `CC(=O)N1CCC2(CC1)C(C#N)=C(N)OC1=C2C(=O)CC(C)(C)C1` it was 0.05.
Turning to `O=C(Nc1ccc(S(=O)(=O)N2CCCCC2)cc1)C1CCCN(C(=O)c2ccc(Cl)cc2)C1` (configuration not stated), the z-score is -0.106.
Turning to `O=C(c1ccc([N+](=O)[O-])s1)N1CCN(c2cccc(Cl)c2)CC1`, the z-score was -0.197.
As for `COc1ccccc1NC(=O)c1cc(C(=O)Nc2ccccc2OC)cc(N2C(=O)CCC2=O)c1`, the z-score is active: 4.66.
In the case of `O=C(CN(Cc1ccccc1)C(=O)CSc1nnc(COc2ccccc2)o1)NC1CCCC1` it was 0.0593.
Take `Cc1ccc2nc(-c3cccc(NC(=O)c4ccco4)c3)[nH]c2c1`: the z-score is -0.409.
`O=C(OCc1nc2ccccc2[nH]1)C12CC3CC(CC(C3)C1)C2` displayed a z-score of 0.101.
With `Clc1ccc(CSc2nnc(-c3cccnc3)n2Cc2ccco2)c(Cl)c1`, the z-score is -0.912.
To `CC(NC(=O)Nc1ccc(F)cc1F)c1ccncc1` (configuration not stated) belongs 0.0735.
On to `CCCCN(CC)C(=O)C1CCC(=O)N(c2ccc(OC)cc2)C1c1ccc(OC)c(OC)c1` (configuration not stated), for which the z-score stood at 0.0756.
To `CCOc1ncccc1C(=O)NCc1ccccc1` belongs -0.616.
To `C=CCOc1ccccc1CNCCCN1CCOCC1` belongs -0.0337.
To `O=C(Nc1cccc(C(F)(F)F)c1)NC1CCN(S(=O)(=O)c2ccc(F)cc2)CC1` belongs -0.153; to `N#Cc1ccc(Oc2nc(Nc3ccc(F)cc3)nc(N3CCCC3)n2)cc1`, 0.106; to `O=C(CCC(=O)N1CCCC1)Nc1nnc(C2CCCCC2)s1`, 0.682.
Molecule `Cc1ccccc1-c1noc(CCC(=O)NCC2CCCO2)n1` (configuration not stated) came in with a z-score of -0.035.
In the case of `COc1ccc(OCCOC(=O)c2ccc(-n3cnnn3)cc2)cc1` it was -0.298.
In the case of `O=C(Nc1ccon1)c1cc2ccccc2oc1=O` it was -0.329; in that of `COc1ccc(OC)c(NC(=O)CSc2nnc(CNC(=O)COc3ccc(Cl)cc3)o2)c1`, -0.149; in that of `CCn1c(O)c(N=NC2=NC(=O)CS2)c2cc(C)ccc21`, 2.24.
`COC(=O)c1cc2nc(-c3ccccc3)cc(C(F)(F)F)n2n1` displayed a z-score of -0.895.
As to `COc1ccc2sc3ccccc3c(=O)c2c1`, the z-score is -0.213.
`CN(C(=O)c1ccc(C#N)cc1)c1nnc(-c2ccccn2)s1`: the z-score is -0.0482.
For the molecule `COCCCNC(=O)c1ccc2c(c1)OCO2`, the z-score is -0.233.
With `CCOC(=O)C1=C(C)n2c(s/c(=C3\C(=O)Nc4ccccc43)c2=O)=NC1c1ccc(OC)cc1` (configuration not stated), the z-score is -0.234.
In the case of `O=S(=O)(Nc1ccc(N2CCOCC2)cc1)c1ccccc1` it was 0.324; in that of `COC(=O)c1cc(Cl)c(NC(=O)c2cc3ccccc3o2)cc1OC`, -0.151; in that of `Cc1cccc(NC(=S)N2CCOCC2)c1C`, -0.324.
Molecule `COc1cc(OC)cc(C(=O)N/N=C/c2ccc(OC)c(COc3ccc(F)cc3)c2)c1` came in with a z-score of 0.0589.
Molecule `NC(=O)C(c1ncc(C(F)(F)F)cc1Cl)c1c(Cl)cccc1Cl` (configuration not stated) registered a z-score of -0.197.
The molecule `CC(=O)Nc1sc2c(c1C(c1ccccc1)N1CCOCC1)CCCC2` (configuration not stated) yielded a z-score of -0.174.
`CCOc1ccccc1NS(=O)(=O)c1cccc2nsnc12` showed a z-score of 0.831.
To `CC1CCCN(CCOCCSc2ccccc2)C1` (configuration not stated) belongs 0.303.
For `O=C1C(C=NCCCN2CCCC2=O)=C(O)c2ccccc21`, the z-score amounted to 0.249.
`Cc1ccccc1C1NC(=O)Cc2ccccc21` (configuration not stated): the z-score was -0.099.
`O=[N+]([O-])c1ccc(NNC(=S)Nc2ccc(F)cc2)cc1` yielded a z-score of 0.253.
To `CC(=O)N1CCC(N(CCCOC(C)C)C(=O)Nc2ccc(C)c(C)c2)CC1` belongs -0.0612.
`CCOc1cc(-c2nc(-c3ccccc3OC)no2)cc(OCC)c1OCC`: the z-score was 0.118.
In the case of `Clc1ccc2nc3ccccn3c2c1` it was 0.482.
In the case of `CC(C)OCC(O)CS(=O)Cc1ccccc1` (configuration not stated) it was 0.168.
`CCOC(=O)C1CCCN(C(=O)c2ccccc2Oc2ccccc2)C1` (configuration not stated) showed a z-score of -1.27.
Turning to `CC(=O)c1ccc(OCC(O)CN2CCC(C)CC2)cc1` (configuration not stated), the z-score was -0.444.
With `Cc1ccc(Nc2nc3nonc3[nH]c2=O)cc1`, the z-score was -0.304.
Take `COc1ccc(-c2cnn3c(N)c(S(=O)(=O)c4ccccc4)cnc23)cc1`: the z-score is -0.0142.
Regarding `CC(C)(O)C#Cc1ccc(C(=O)N2CCN(C(=O)c3ccco3)CC2)cc1`, the z-score amounted to 0.294.
In the case of `COc1ccc(C2C(=O)N(C3CCCCC3)CC(=O)N2CC2COc3ccccc3O2)cc1` (configuration not stated) it was -0.174.
To `CCS(=O)(=O)N1CCC(C(=O)c2ccc(Cl)cc2)CC1` belongs 0.431; to `Cc1cc(C)c(S(C)(=O)=O)c(S(=O)c2ccc(Cl)cc2)n1` (configuration not stated), -0.807; to `O=C1CC(Sc2ncccn2)C(=O)N1c1ccccc1C(F)(F)F` (configuration not stated), 0.784.
To `CCCCC(=O)Nc1ccc(Br)cc1C(=O)O` belongs -0.24; to `CCOC(=O)Oc1ccc2c(=O)c(Oc3cc(C)cc(C)c3)coc2c1`, -0.109.
`Cc1ccc(C)c(NC(=O)C2CC(O)CN2C(=O)OC(C)(C)C)c1` (configuration not stated) registered a z-score of -0.0711.
To `O=S1(=O)N=C2CCCN2C(c2ccc(F)cc2)N1` (configuration not stated) belongs 0.0641; to `Cc1ccc(C(c2nnnn2C2CCCCC2)N(C)C2CCCCC2)cc1` (configuration not stated), -0.198; to `Clc1ccccc1OCc1nnc(-c2ccccc2Br)o1`, -0.451.
`COc1ccc(C(CC(=O)Nc2ccc(Cl)cc2F)NC(=O)C(F)(F)F)cc1` (configuration not stated) gave a z-score of -0.164.
To `COc1ccc(-c2nc(C#N)c(N3CCN(c4ccccc4)CC3)o2)cc1` belongs 0.645; to `O=C(c1cnn(-c2ccccc2)c1)c1ccccc1O`, -0.163.
